# Measured values from PubChem BioAssay AID1963576 (National Center for Advancing Translational Sciences (NCATS), 2024).
# The whole screen tested about 46,000 compounds, of which about 60 (0.1%) were called active. Roughly 3% stayed inconclusive and do not appear here. The call rests on the fitted dose curve; in most records, active means well fitted inhibition curve with a large enough effect; inconclusive means small, poorly fitted or top-dose-only effect; inactive means no such curve, though single readings can be large or run the other way. This is one part of the list.
# Experiment: Primary qHTS assay for Inhibitors of ovarian cancer metastasis using an organotypic tumor microenvironment (TME) model. Further: nearly all actives have a fitted effect of over 65% in size.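 On activity change, negative = inhibition: plate controls were DMSO wells for no effect and tomatine positive control wells for full effect.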
# Conditions: SKOV3ip1-GFP adhesion/invasion on 3D omental model, fluorescence; series mostly up to 45.8 µM; activity change, negative = inhibition: at the top concentration
# In short: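 qHTS, 4-pt dose (0.36-46 umol/L); SKOV3ip1-GFP, 1,200 cells/well, no FBS; primary omental fibroblast/mesothelial co-culture 48 h pre-grown; 2 h RT + 16 h 37 C; PBS wash, 4% PFA; GFP count 488/509 nm.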
SMILES,"activity change, negative = inhibition",outcome
CCc1ccc(C2C(C(=O)Nc3ccccc3)=C(C)Nc3c(C(=O)Nc4ccc(C)cc4)cnn32)cc1 (stereo not drawn),inactive: -4.86%,–
O=C(c1ccco1)N(Cc1cccnc1)c1nc2ccc(F)cc2s1,inactive: -7.67%,–
Cc1ccc(-n2c(CCC(=O)O)ccc2-c2cccs2)cc1C,inactive: 3.73%,–
O=C(CSc1nccn1Cc1ccco1)Nc1cccc(F)c1,inactive: -0.409%,–
CCc1c(C)c2ccc3c(c2oc1=O)CN(Cc1ccccc1)CO3,inactive: 9.17%,–
COc1ccc(OCC(=O)Nc2nnc(S(=O)(=O)N3CCCCCC3)s2)cc1,inactive: 9.42%,–
CCOC(=O)C1CCN(C(c2ccccc2)c2c(O)cc(C)n(Cc3ccco3)c2=O)CC1 (stereo not drawn),inactive: 7.57%,–
O=C(Nc1ccc(C(F)(F)F)cc1)C1CCC(CNS(=O)(=O)c2cccc3nsnc23)CC1 (stereo not drawn),inactive: -3.81%,–
COc1cc(C2CC(=O)Nc3c2c(=O)[nH]c2nc4ccccc4n32)ccc1O (stereo not drawn),inactive: -28.2%,–
COc1ccc(-c2nn3c(-c4ccc(OC)cc4)nnc3c3ccccc23)cc1,inactive: 21.4%,–
CCc1nn2c(=O)cc(COC(=O)c3ccccc3NC(=O)COc3ccccc3C)nc2s1,inactive: -37.7%,–
CC1(C)C(=O)N(CC(=O)Nc2ccc(Cl)cc2)c2ccccc21,inactive: 1.1%,–
CCC(C)NC(=O)c1cc2c(Cl)nc3ccc(C)cc3c2s1 (stereo not drawn),inactive: -0.134%,–
COc1ccc(OC(=O)c2nc(SCc3ccc(C)cc3)ncc2Cl)cc1,–,inactive
CC1CCCN(c2csc3ccc(F)cc3c2=O)C1 (stereo not drawn),inactive: 3.88%,–
CCc1ccccc1NC(=O)C1=CC(c2ccc(OC)c(OC)c2)=NS(=O)(=O)N1C,inactive: 4.32%,–
CCOC(=O)c1ccc(-n2c(N)c(C(=O)OC)c3nc4ccccc4nc32)cc1,inactive: 1.26%,–
CCC(Cc1ccccc1)NC(=O)c1ccc2nc(N3CCC(C)CC3)sc2c1 (stereo not drawn),–,inactive
Cc1ccc(NC(=O)Cn2c(=O)n(Cc3ccccc3)c(=O)c3c(C)c(C)sc32)c(C)c1,inactive: 2.22%,–
CCCOc1ccc(C(=O)Nc2cccc(-c3nc4ccccc4[nH]3)c2)cc1,inactive: -16.9%,–
Cc1ccc(-c2nc(C)c(CCNC(=O)C(=O)Nc3ccc4c(c3)OCCO4)s2)cc1,–,inactive
O=C(CN1C(=O)COc2ccc(S(=O)(=O)N3CCCCC3)cc21)NCc1ccc(F)cc1,inactive: -11%,–
O=C(Nc1ccc(N2CCC(N3CCCCC3)CC2)c(C(=O)O)c1)c1ccc(Br)cc1,inactive: 1.35%,–
CCOc1cc(C2C(C(=O)OC)=C(C)NC3=C2C(=O)c2ccccc23)ccc1O (stereo not drawn),inactive: -5.14%,–

SMILES,"activity change, negative = inhibition",outcome
CCc1ccc(-c2nn(CC(=O)NC3CCCC3)c3c2cnc2ccc(C)cc23)cc1,–,inactive
CC1(C)O[C@H]2[C@@H](O1)[C@@H](C(=O)Nc1ccccc1O)O[C@@H]1OC(C)(C)O[C@@H]12,inactive: -0.29%,–
CCC(CC)C(=O)Nc1cccc(-c2nc3cccnc3s2)c1C,inactive: 6.3%,–
COc1ccccc1-c1nc(S(=O)(=O)c2ccc(Cl)cc2)c(N2CCCCCC2)o1,–,inactive
CCOc1ccc(CNC(=O)C2CCCN(c3nc4c(C)cc(C)cc4s3)C2)cc1 (stereo not drawn),inactive: -3.22%,–
COc1ccc(-n2nc3ccc(NC(=O)c4cc5ccccc5o4)cc3n2)cc1Cl,inactive: 5.02%,–
Cc1ccc(C(C)C)c(OCC(=O)Nc2c(C(=O)c3ccccc3)oc3ccccc23)c1,inactive: -1.44%,–
Cc1cccc(/C=C/c2onc(C)c2S(=O)(=O)N2CCC(C(=O)N3CCC(C)CC3)CC2)c1,inactive: -4.61%,–
CCOc1ccccc1NC(=O)c1c(C)cc(C)nc1SCC(=O)c1cccc(OC)c1,inactive: 4.79%,–
O=C(Nc1cccc(C(=O)N2CCCCC2)c1)c1nsc2ccccc12,inactive: 1.06%,–
CCc1ccc(-n2nc(C)c3c(C(=O)Nc4cccc(C(F)(F)F)c4)cc(C)nc32)cc1,inactive: 1.01%,–
Cc1cc(O)c(C(c2ccc(F)cc2)N2CCCCC2)c(=O)n1Cc1ccco1 (stereo not drawn),–,inactive
Cc1cc(Nc2cccc(C(F)(F)F)c2)nc2ccc(NC(=O)c3ccc(N(C)C)cc3)cc12,–,inactive
Cc1ccc(CN2C(=O)c3ccccc3C2C(=O)NC2CCCCCC2)cc1 (stereo not drawn),inactive: 17.3%,–
Cc1ccc(NC(=O)c2sc3ccccc3c2Cl)cc1,inactive: 8.64%,–
Cc1cccn2c(=O)c(/C=C(\C#N)c3nc4ccccc4n3C)c(Oc3ccc(Br)cc3)nc12,inactive: 1.56%,–
O=C(CN1CCN(c2ccc(Cl)cc2)CC1)Nc1ccc(F)cc1F,inactive: -10.7%,–
Cc1ccc(NC(=O)CCCn2nc(C)c3c(C)n(-c4ccccc4)nc3c2=O)cc1Cl,inactive: -2.04%,–
Cc1cccc(C)c1Nc1c(-c2ccsc2)nc2ccccn12,inactive: -6.59%,–
COc1ccc(CNC(=O)CCn2nc(C)c3c(C)n(-c4ccccc4)nc3c2=O)cc1OC,inactive: 15.3%,–
CCOCCCn1c(=N)c(S(=O)(=O)c2ccc(C)cc2)cc2c(=O)n3cccc(C)c3nc21,inactive: -0.873%,–
COc1ccc(CN(CCC(c2ccc3c(c2)OCO3)c2ccccc2OC)C(C)=O)cc1 (stereo not drawn),–,inactive
COc1ccc(CNC(=O)C(=O)NCC(c2cccs2)S(=O)(=O)c2ccc(F)cc2)cc1 (stereo not drawn),inactive: -2.51%,–
CN1C(=O)c2ccccc2Sc2ccc(NC(=O)Nc3ccccc3F)cc21,inactive: 11.6%,–
